Where two headings read alike, the source gives them in different places.
Target: T1, HiBiT-GCase-L444P (Homo sapiens, UniProt P04062, L483P)
T1 sequence (P04062 40-536 L483P): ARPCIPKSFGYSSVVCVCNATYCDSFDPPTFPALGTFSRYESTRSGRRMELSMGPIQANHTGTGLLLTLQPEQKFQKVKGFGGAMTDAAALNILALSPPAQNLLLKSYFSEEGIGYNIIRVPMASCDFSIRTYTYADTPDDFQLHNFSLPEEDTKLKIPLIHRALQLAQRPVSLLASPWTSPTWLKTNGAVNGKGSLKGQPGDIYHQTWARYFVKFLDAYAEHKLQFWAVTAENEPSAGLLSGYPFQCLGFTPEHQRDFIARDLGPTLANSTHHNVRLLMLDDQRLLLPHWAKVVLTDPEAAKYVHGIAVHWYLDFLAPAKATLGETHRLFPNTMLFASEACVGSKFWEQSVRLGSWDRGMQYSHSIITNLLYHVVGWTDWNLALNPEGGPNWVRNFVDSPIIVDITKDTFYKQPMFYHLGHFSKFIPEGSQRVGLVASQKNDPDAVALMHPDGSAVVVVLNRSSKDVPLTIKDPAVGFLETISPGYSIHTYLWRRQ
Design: AUC: unit not given beside the values
Settings: for CC-v2: qHTS curve class

[1] = follow-up screen, 24 h, relative to DMSO control
[2] = follow-up screen, 24 h, listed as NCGC00162453-15
[3] = follow-up screen, 24 h, listed as NCGC00168085-22
[4] = follow-up screen, 24 h, listed as NCGC00263155-07
[5] = follow-up screen, 24 h, listed as NCGC00263177-07

SMILES	AC50 (follow-up screen, 24 h)	AUC (follow-up screen, 24 h)	CC-v2 (follow-up screen, 24 h)	Efficacy [1]	further results
CN(C(=O)CNC(=O)c1ccccc1OCC(=O)Nc1ccc(I)cc1)c1ccccc1 [NCGC607]	14.1 µM	62.8	1.2		
NC(=O)c1nnn(Cc2cc(Cl)c(C(=O)c3ccc(Cl)cc3)c(Cl)c2)c1N [NCGC00014926-04, L-651,582]	59.5 µM	-32.6	2.1	119	
COc1ccccc1N1CCN(CC(O)COc2cccc3ccccc23)CC1 (centres unmarked) [NCGC00015718-17, Naftopidil]	47.3 µM	25.5	1.1		
CCOC(=O)C1=C[C@]2(CC)CCCN3CCc4c(n1c1ccccc41)[C@@H]32 [NCGC00018204-17, Vinpocetine]		-30.6	2.4		
C1CCC(C(CC2CCCCN2)C2CCCCC2)CC1 (centres unmarked) [NCGC00018261-06, Perhexiline]	63.1 µM	-45.8	1.1		
N[C@](CC1c2ccccc2Oc2ccccc21)(C(=O)O)[C@@H]1C[C@@H]1C(=O)O [NCGC00025041-04, LY341495]	9.4 µM	-3.6	1.2	42	
CC(/C=C/C(=O)NO)=C\[C@@H](C)C(=O)c1ccc(N(C)C)cc1 [NCGC00162453-18, Trichostatin A]	1.9 µM	599.3	1.1	425	AC50 [2]: 0.749 µM; AUC [2]: 637.2; Efficacy (follow-up screen, 24 h, relative to DMSO control, listed as NCGC00162453-15): 353
Nc1ccccc1NC(=O)c1ccc(CNC(=O)OCc2cccnc2)cc1 [NCGC00165833-13, Entinostat]	4.2 µM	434.3	1.1		
O=C(Nc1cc(C(F)(F)F)ccc1O)Nc1cc(C(F)(F)F)ccc1O [NCGC00165838-03, NS1643]	53 µM	85.4	1.1	130	
O=C(/C=C/C#Cc1cccc(NS(=O)(=O)c2ccccc2)c1)NO [NCGC00165855-06, Oxamflatin]	1.1 µM	226.4	1.1	113	
NC(=O)[C@@H]1CCCN1C(=O)[C@H](Cc1cnc[nH]1)NC(=O)[C@@H]1CCC(=O)N1 [NCGC00166322-02, PROTIRELIN]	23.7 µM	41.6	1.1		
C=C1/C(=C\C=C2/CCC[C@]3(C)[C@@H]([C@H](C)/C=C/[C@@H](O)C4CC4)CC[C@@H]23)C[C@@H](O)C[C@@H]1O [NCGC00167465-02, Calcipotriene]	28.2 µM	-35.4	2.2		
O=c1oc(-c2ccc(C(F)(F)F)cc2)nn1Cc1cc(Cl)ccc1O [NCGC00167822-02, BMS 191011]	59.5 µM	31.7	2.1	108	
O=C(CCCCCCC(=O)Nc1ccccc1)NO [NCGC00168085-05, Vorinostat (SAHA)]	35.5 µM	248.1	1.1	658	AUC (follow-up screen, 24 h, listed as NCGC00168085-13): 404.7; AC50 [3]: 3.3 µM; AUC [3]: 476.8; Efficacy (follow-up screen, 24 h, relative to DMSO control, listed as NCGC00168085-13): 340; Efficacy (follow-up screen, 24 h, relative to DMSO control, listed as NCGC00168085-22): 356; Efficacy (normalized to DMSO, 100% efficacy reflects a doubling of GCase levels): 658%
C=C1C(=O)O[C@@H]2C3C(=C(C)[C@@H](O)[C@@H](OC(=O)/C(=C/C)COC(C)=O)[C@@H]12)C(=O)[C@H]1O[C@@]31C (some centres unmarked) [NCGC00168883-03]	9.2 µM	12.8	1.1	103	
C=C1[C@@H](C2=CC(=O)OC2)CC[C@@]2(O)[C@@H]1CC1[C@H]2CC[C@@H]2C[C@@H](O[C@H]3O[C@@H](C)[C@@H](O[C@@H]4O[C@H](CO[C@@H]5O[C@H](CO)[C@@H](O)[C@H](O)[C@H]5O)[C@@H](O)[C@H](O)[C@H]4O)[C@H](OC)[C@H]3O)CC[C@]12C (some centres unmarked) [NCGC00169844-02]	4 µM	142.3	1.1	169	
CC1(C)CC[C@]2(C(=O)O)CC[C@]3(C)C(=CC[C@@H]4[C@@]5(C)C[C@@H](O)[C@H](O)C(CO)(CO)[C@@H]5CC[C@]43C)[C@@H]2[C@@H]1O [NCGC00180693-03]	6.5 µM	62.7	1.1	132	
CCCNC(=O)CNC(=O)c1ccccc1OCC(=O)Nc1ccc(Br)cc1 [NCGC00182268-01]	89.1 µM	55.2	2.1	115	
COC(=O)C1=C(C)NC(COC(N)=O)=C(C(=O)OC(C)C)C1c1cccc(Cl)c1Cl (centres unmarked) [NCGC00183830-01, Lemildipine]	21.1 µM	116.8	2.1		
O=C(CCCN1CCN(c2ccc(F)cc2)CC1)NC1c2ccccc2CSc2ccccc21 (centres unmarked) [NCGC00183837-01, Monatepil]		72.4	2.2		
Cc1cc(C)n2ncc(C(=O)Nc3ccccc3Sc3ccccc3)c2n1 [NCGC00229712-01]	89.1 µM	-8.8	2.2	50	
O=C(COc1ccccc1C(=O)NCc1ccccc1)Nc1ccc(I)cc1 [NCGC00241319-01]	100 µM	64.2	2.2	80	
COc1ccc(CNC(=O)c2ccccc2OCC(=O)Nc2ccc(I)cc2)cc1 [NCGC00241320-01]	39.8 µM	6.8	2.2	50	
CN(C)c1ccc(CNC(=O)c2ccccc2OCC(=O)Nc2ccc(I)cc2)cc1 [NCGC00241321-01]	50.1 µM	56.5	2.2	48	
CCCCCCc1ccc(NC(=O)CNC(=O)c2ccccc2OCC(=O)Nc2ccc(I)cc2)cc1 [NCGC00241470-01]	39.8 µM	100.5	1.2	57	
CC(C)(C)c1ccc(NC(=O)CNC(=O)c2ccccc2OCC(=O)Nc2ccc(F)cc2)cc1 [NCGC00241593-01]	50.1 µM	105.1	1.1	99	

Continued, in another order:

AC50 (follow-up screen, 24 h)	AUC (follow-up screen, 24 h)	CC-v2 (follow-up screen, 24 h)	Efficacy [1]	SMILES	further results
31.6 µM	7.4	1.2	56	CN(C(=O)CNC(=O)c1ccccc1OCC(=O)Nc1ccc(Br)cc1)c1ccccc1 [NCGC00241605-03]	
50.1 µM	63.7	1.1	115	N#Cc1ccc(NC(=O)CNC(=O)c2ccccc2OCC(=O)Nc2ccc(I)cc2)cc1 [NCGC00241608-01]	
31.6 µM	57.2	1.1	128	Cc1ccc(NC(=O)CNCc2ccccc2OCC(=O)Nc2ccc(I)cc2)cc1 [NCGC00242322-01]	
89.1 µM	47.3	1.2	58	Cc1cc(C)n2ncc(C(=O)Nc3ccc(C#CCCCN4CCN(C)CC4)cc3)c2n1 [NCGC00242356-01]	
11.9 µM	113.6	1.1		CC(C)(C)c1cc(C(C)(C)C)c(NC(=O)c2c[nH]c3ccccc3c2=O)cc1O [NCGC00242480-08, Ivacaftor]	
89.1 µM	154.7	2.1	143	Cc1ccc(NC(=O)[C@H](C)NC(=O)c2ccccc2OCC(=O)Nc2ccc(I)cc2)cc1 [NCGC00244548-01]	
25.1 µM	79.6	2.4	41	CN(C(=O)CNC(=O)c1cc(F)ccc1OCC(=O)Nc1ccc(I)cc1)c1ccc(F)cc1 [NCGC00249581-01]	
0.447 µM	505.2	1.1		CC(C)C[C@H](NC(=O)CNC(=O)c1cc(Cl)ccc1Cl)B(O)O [NCGC00249611-04, Ixazomib]	
7.5 µM	90.5	1.1		Cc1c[nH]c(-c2cnc(NCCNc3ccc(C#N)cn3)nc2-c2ccc(Cl)cc2Cl)n1 [NCGC00250379-09, CT-99021]	
2.4 µM	354.4	1.1	285	CC(C)(C)OC(=O)Nc1ccc(-c2cc(C(=O)NCCCCCCC(=O)NO)no2)cc1 [NCGC00250390-03, ISOX]	
0.376 µM	893.2	1.1		CCCCc1nc2cc(/C=C/C(=O)NO)ccc2n1CCN(CC)CC [NCGC00263136-04, Pracinostat]	
0.9 µM	806.6	1.1		O=C(/C=C/c1cccc(S(=O)(=O)Nc2ccccc2)c1)NO [NCGC00263155-09, Belinostat]	AC50 [4]: 1.7 µM; AUC [4]: 577.3
1.2 µM	432.6	1.1		C#Cc1cccc(Nc2ncnc3cc(OC)c(OCCCCCCC(=O)NO)cc23)c1 [NCGC00263177-10, CUDC-101]	AC50 [5]: 0.266 µM; AUC [5]: 251.5
